Reference: US20130171162A1, “COMPOSITIONS AND METHODS FOR THE PREVENTION OF OXIDATIVE DEGRADATION OF PROTEINS” (priority 2008, published 2013)

Assay: Anti-CD11a antibody oxidation by AAPH
Format: physicochemical

B1: anti-CD11a antibody: anti-CD11a antibody designed to selectively and reversibly block activation, reactivation and trafficking of T-cells that lead to psoriasis (antibody, chains of the INN, looked up)
heavy: EVQLVESGGGLVQPGGSLRLSCAASGYSFTGHWMNWVRQAPGKGLEWVGMIHPSDSETRYNQKFKDRFTISVDKSKNTLYLQMNSLRAEDTAVYYCARGIYFYGTTYFDYWGQGTLVTVSS[… human IgG1 constant region …]
light: DIQMTQSPSSLSASVGDRVTITCRASKTISKYLAWYQQKPGKAPKLLIYSGSTLQSGVPSRFSGSGSGTDFTLTISSLQPEDFATYYCQQHNEYPLTFGQGTKVEIKRTVAAPSVFIFPPSDEQLKSGTASVVCLLNNFYPREAKVQWKVDNALQSGNSQESVTEQDSKDSTYSLSSTLTLSKADYEKHKLYACEVTHQGLSSPVTKSFNRGEC
% Oxidized HC-M35 (t = 0): 0.5%
% Oxidized HC-M50 (t = 0): 1.6%
% Oxidized HC-M256 (t = 0): 5.3%
% Oxidized HC-M362 (t = 0): 0.6%
% Oxidized HC-M35 (t = 8 hr): 2.3%
% Oxidized HC-M50 (t = 8 hr): 8.2%
% Oxidized HC-M256 (t = 8 hr): 14.3%
% Oxidized HC-M362 (t = 8 hr): 1.2%
% Oxidized HC-M35 (t = 24 hr): 4.1%
% Oxidized HC-M50 (t = 24 hr): 20%
% Oxidized HC-M256 (t = 24 hr): 31.6%
% Oxidized HC-M362 (t = 24 hr): 3.2%
